{"source": "PubChem BioAssay AID686978", "about": "(National Center for Advancing Translational Sciences (NCATS), 2013)", "note": "“And” between values parts separate entries of the source, which are not always exact repeats. Identical values can stand only once. About 64,000 (15%) of roughly 420,000 compounds were called active. Inconclusive results, whose numbers are uncertain, are shown with a selection of clear calls. Calls come from the whole dose curve; as a rule, active = well fitted inhibition curve with a large enough effect; inconclusive = small, poorly fitted or top-dose-only effect; inactive = flat fitted curve, though single readings scatter. Potencies of inconclusive entries are doubtful fits and often do not repeat. % is set by controls: 0 for no effect and ±100 for the full control effect; potency is the fitted concentration of half-maximal effect; tags give direction and shape of the fitted curve.", "data": [{"assay": "qHTS for Inhibitors of human tyrosyl-DNA phosphodiesterase 1 (TDP1): qHTS in cells in absence of CPT; note: nearly all actives have a fitted effect of over 55% in size", "settings": "DT40 Tdp1-/- hTDP1 cells, no CPT, ATP luminescence, 48 h; activity change, negative = growth inhibition: at 46.2 µM (top of the series) unless noted", "procedure,_shortened": "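Luminescent ATP content (CellTiter-Glo) served as the growth readout. Knockout chicken DT40 cells expressing human TDP1 were exposed to compounds without camptothecin for a minimum 48 hr at 37 °C.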", "values": [{"compound": "O=c1cc(O)c2c(=O)n(-c3ccccc3)c3c(c2o1)CCCCC3", "Potency": "inactive"}, {"compound": "Cc1ccc(C(c2cc(Cl)c3cccnc3c2O)N2CCN(C)CC2)cc1", "note": "(stereo not drawn)", "Potency": "inconclusive: 29.1 µM [inhibitor, single point]"}, {"compound": "Cc1ccc2nc(N3CCN(c4ccc(F)cc4)CC3)c3nnnn3c2c1", "Potency": "active: 14.6 µM"}, {"compound": "COc1ccc(Nc2nnc(C)c(=O)[nH]2)cc1", "Potency": "inactive"}, {"compound": "CCN(C(=O)C1CCCN(c2nc(-c3ccc(OC)cc3)no2)C1)c1ccc(OC)cc1", "note": "(stereo not drawn)", "Potency": "active: 20.6 µM"}, {"compound": "CN(C)c1ccc(/C=N/n2cnn(Cc3ccccc3Cl)c2=S)cc1", "Potency": "inconclusive: 29.1 µM [inhibitor, single point]"}, {"compound": "O=C(Cc1ccc(Cl)cc1)N1CCN(c2ccccc2)CC1", "Potency": "inactive"}, {"compound": "COc1ccc(NC(=S)NC(=O)/C=C/c2ccco2)c(OC)c1", "Potency": "inconclusive: 25.9 µM [inhibitor, single point]"}, {"compound": "CCC(=O)N1N=C(c2cccs2)CC1c1ccc(OC)cc1", "note": "(stereo not drawn)", "Potency": "inactive"}, {"compound": "Cc1ncoc1C(=O)NC1CCCc2c1cnn2-c1cc(F)cc(F)c1", "note": "(stereo not drawn)", "Potency": "active: 25.9 µM"}, {"compound": "CCOC(=O)C1=C(C)OC(N)=C(C#N)C1c1cc(OC)c2c(c1)OCO2", "note": "(stereo not drawn)", "Potency": "inconclusive: 18.4 µM [inhibitor, single point]"}, {"compound": "Cc1ccc(C(C)C)c(OCc2ccc(-c3nnco3)cc2)c1", "Potency": "active: 20.6 µM"}, {"compound": "CS(=O)(=O)N(CC(=O)N1CCOCC1)c1ccccc1Br", "Potency": "inactive"}, {"compound": "O=C(NCCSCc1c(F)cccc1Cl)Nc1ccccc1", "Potency": "inconclusive: 29.1 µM [inhibitor, single point]"}, {"compound": "N#C/C(=C\\c1ccccc1)c1nc(-c2cc3c(ccc4ccccc43)oc2=O)cs1", "Potency": "inactive"}, {"compound": "CCCCN(CC)CCNC(=O)c1nn(-c2ccc(OC)cc2)c(=O)c2c1c1ccccc1n2C", "Potency": "inconclusive: 23.1 µM [inhibitor, single point] and inconclusive: 29.1 µM [inhibitor, single point]"}, {"compound": "O=C(COC(=O)c1cc(-c2cccs2)nc2ccccc12)NCc1ccco1", "Potency": "inconclusive: 14.6 µM [inhibitor, single point]"}, {"compound": "Cc1cccc(Oc2nc(-c3ccncc3)nc3ccccc23)c1", "Potency": "inconclusive: 20.6 µM [inhibitor, single point]"}, {"compound": "CC(=O)Nc1ccc(S(=O)(=O)N2CCC(C(=O)c3ccc(F)cc3)CC2)cc1", "Potency": "inconclusive: 18.4 µM [inhibitor, partial curve]"}, {"compound": "CCOC(=O)c1c(NC(=O)COc2ccc(OC)cc2)sc(C(=O)N(CC)CC)c1C", "Potency": "active: 7.31 µM"}, {"compound": "COC(=O)c1cn(-c2nc3ccccc3s2)nn1", "Potency": "active: 16.4 µM"}, {"compound": "OC(c1ccc(Cl)cc1)c1ncc(-c2ccccc2F)[nH]1", "note": "(stereo not drawn)", "activity change, negative = growth inhibition": "inconclusive: -34.2% [inhibitor]"}, {"compound": "COc1ccc(COC(=O)C2=C(C)NC(=O)NC2c2ccccc2F)cc1", "note": "(stereo not drawn)", "Potency": "inconclusive: 29.1 µM [inhibitor, single point]"}, {"compound": "CC1Sc2ccc(C(=O)Nc3ncccc3O)cc2NC1=O", "note": "(stereo not drawn)", "Potency": "inconclusive: 29.1 µM [inhibitor, single point]"}, {"compound": "Cc1ccc(S(=O)(=O)N2CCCN(C(C)c3nc4ccccc4c(=O)[nH]3)CC2)cc1", "note": "(stereo not drawn)", "Potency": "inconclusive: 29.1 µM [inhibitor, single point]"}, {"compound": "COc1cc(=O)[nH]c(SCC(=O)Nc2nc3c(s2)CCCC3)n1", "Potency": "inconclusive: 23.1 µM [inhibitor, single point]"}, {"compound": "Cc1sc2nc(SCC(=O)OC(C)C)n(C)c(=O)c2c1C", "Potency": "active: 23.1 µM"}, {"compound": "COc1ccc(NS(=O)(=O)c2cc(NC(=O)c3ccc(C)o3)ccc2N2CCCCC2)cc1", "Potency": "inconclusive: 18.4 µM [inhibitor, single point]"}, {"compound": "CCOC(=O)c1cccc(NC(=O)Cn2cnc3nc4c(cc3c2=O)CCCC4)c1", "Potency": "inconclusive: 25.9 µM [inhibitor, single point]"}, {"compound": "O=C(Nc1ccccc1)Nc1ccc(NC(=O)c2ccccc2O)cc1", "Potency": "inactive"}, {"compound": "O=C(Nc1ccc(O)c(C(=O)O)c1)c1cccc(NC(=O)c2ccco2)c1", "Potency": "inactive"}, {"compound": "Cc1ccc(C(=O)C(C)OC(=O)CCN=C2NS(=O)(=O)c3ccccc32)cc1", "note": "(stereo not drawn)", "Potency": "inactive"}, {"compound": "Cn1c(CCCOc2ccc(Cl)cc2Cl)nnc1SCC(=O)Nc1cccc(F)c1", "Potency": "inconclusive: 23.1 µM [inhibitor, single point]"}, {"compound": "COCCN(Cc1cn(C)nc1-c1ccc(Oc2ccccc2)cc1)C(C)C", "Potency": "inactive"}, {"compound": "O=C(Nc1ccccc1C(F)(F)F)c1ncn[nH]1", "Potency": "inactive"}, {"compound": "CCOc1ccccc1C(=O)NCC(=O)NC(C)c1ccc(-n2ccnc2)cc1", "note": "(stereo not drawn)", "activity change, negative = growth inhibition": "inconclusive: -31.2% [inhibitor]"}, {"compound": "CCOC(=O)[C@]12CCC=C1N(Cc1cccc3ccccc13)C(=O)[C@H](CC(=O)NCc1cccc(C(F)(F)F)c1)C2", "Potency": "active: 23.1 µM"}, {"compound": "O=C(Nc1nc(-c2cc(F)ccc2F)cs1)C1=NN(c2ccccc2)C(=O)CC1", "Potency": "inconclusive: 16.4 µM [inhibitor, partial curve]"}, {"compound": "COCCOC(=O)C1=C(C)NC(=S)NC1/C=C/c1ccccc1", "note": "(stereo not drawn)", "Potency": "inconclusive: 29.1 µM [inhibitor, single point]"}, {"compound": "CCOC(=O)Cc1csc(NC(=O)/C=C/c2ccc(Br)o2)n1", "Potency": "inconclusive: 29.1 µM [inhibitor, single point]"}, {"compound": "Cc1ccc(NC(=S)N/N=C/c2ccc(OCCC(C)C)cc2)c(C)c1", "Potency": "inconclusive: 18.4 µM [inhibitor, single point]"}, {"compound": "CCCCN(CCCC)C(=O)c1cc2ccccc2c(=O)o1", "Potency": "active: 16.4 µM"}, {"compound": "COc1ccc(-c2ccc(N)[n+](CCCC(=O)O)n2)cc1", "Potency": "inactive"}, {"compound": "Cc1ccc(C(c2c(C)n(C)n(-c3ccccc3)c2=O)c2c(C)n(C)n(-c3ccccc3)c2=O)s1", "Potency": "inconclusive: 20.6 µM [inhibitor, single point]"}, {"compound": "Cc1ccc2cc(C#N)c(N3CCN(C(=O)c4cccs4)CC3)nc2c1", "Potency": "active: 20.6 µM"}, {"compound": "CN(C)c1ccc(NC(=S)c2ccccn2)cc1", "Potency": "active: 5.17 µM"}, {"compound": "O=C(N/N=C/c1ccco1)c1cc(-c2cccc(Br)c2)nc2ccccc12", "Potency": "active: 5.8 µM"}, {"compound": "O=C1[C@H]2[C@@H](c3ccc(C(F)(F)F)cc3)N[C@]3(CCCN(Cc4ccc(Cl)cc4)C3=O)[C@H]2C(=O)N1Cc1ccccc1", "Potency": "active: 20.6 µM"}]}]}
